Assay results taken from PubChem BioAssay AID624173 (National Center for Advancing Translational Sciences (NCATS), 2012).
The whole screen tested about 410,000 compounds, of which about 490 (0.12%) were called active. Inconclusive results, whose numbers are uncertain, are shown with a selection of clear calls. The call rests on the fitted dose curve; in most records, active means well fitted inhibition curve with a large enough effect; inconclusive means small, poorly fitted or top-dose-only effect; inactive means flat fitted curve, though single readings scatter. Potencies beside an inconclusive call are fits to weak or partial responses and may not hold up.

molecular target: pyruvate kinase (Trypanosoma brucei) (UniProt Q57TT1); assay: qHTS of Trypanosoma Brucei Inhibitors; conditions: TbPYK enzyme, Kinase-Glo Plus ATP luminescence, 45 min; series mostly up to 76.8 µM; activity, negative = inhibition: at the top concentration; further: nearly all actives have a fitted effect of over 50% in size
Excerpt: Members of the Trypanosomatidae family of parasitic protozoans cause a spectrum of diseases throughout the tropical and subtropical world. Sleeping sickness, caused by two subspecies of Trypanosoma brucei, is endemic to areas of sub-Saharan Africa, while Chagas' disease, a manifestation of Trypanosoma cruzi infection, is prevalent throughout Central and South America. In addition, many species of Leishmania are responsible for a range of cutaneous and visceral diseases, causing ulcers, destructive lesions and kalaazar, a lethal infection of the viscera. These diseases cause severe public health and economic burdens on populations that are often already caught in a tragic cycle of poverty, poor nutrition and disease. Collectively, parasites of the trypanosomatid family infect 30 million people worldwide (~500 million live in endemic areas), and account for ~130K deaths annually. Existing treatments have developed little in the past 50 years, and suffer from toxicity, poor efficacy and resistance; the goal of this project is to develop lead drugs that will be suitable for entry into pre-clinical trials.
Glycolysis in axenically cultured T. cruzi, representing the intracellular pathogenic stage, is also essential for these parasites. {Engel, 1987} This project aims to discover and optimize selective inhibitors of the glycolytic enzyme pyruvate kinase (PYK) from Trypanosoma brucei, the parasite that causes sleeping sickness. […] Trypanosomatid PYKs show significant differences from their human counterparts including only 47-50% sequence identity and different allosteric and activation properties.{Callens, 1992} To this end, a qHTS was done against the MLSMR to discover inhibitors.
NIH Molecular Libraries Probe Production Network [MLPCN]
NIH Chemical Genomics Center [NCGC]
PI Name: Malcolm Walkinshaw, University of Edinburgh
2 uL of TbPYK/substrate buffer (columns 1-3, 5-48) are dispensed into Greiner white solid bottom 1536-well assay plates; column 4 receives only TEA buffer as 0x TbPYK controls. Compounds are then transferred via Kalypsys pin tool equipped with 1536-pin array (10 nL slotted pins, V&P Scientific, San Diego, CA). Following addition of compound, 2 uL of ADP (130 uM final concentration, all columns) is added to initiate the reaction. The plates are then incubated at room temperature for 45 minutes. Kinase-Glo Plus reagent is added (3 uL) and plates incubated for 10 minutes, before being transferred to a ViewLux high-throughput CCD imager (PerkinElmer) wherein single end-point measurements of luminescence are acquired using a clear filter. All reagents are diluted in an assay buffer consisting of 50 mM TEA (pH 7.2), 100 mM KCl, 10 mM MgCl2, 0.05% BSA and 0.01% Tween-20.
All screening operations will be performed on a fully integrated robotic system (Kalypsys, San Diego, CA) containing one RX-130 and two RX-90 anthropomorphic robotic arms (Staeubli, Duncan, SC). Library plates will be screened starting from the lowest and proceeding to the highest concentration. Vehicle-only plates, with DMSO being pin-transferred to columns 5-48, will be inserted uniformly at the beginning and the end of each library in order to monitor and record any shifts in the background, which can be affected by reagent dispensers or loss in enzyme activity over time. Screening data will be corrected, normalized, and concentration-effect relationships will be derived by using publicly-available curve fitting algorithms developed in-house (http://ncgc.nih.gov/pub/openhts).
On the % scale 0 is the no-effect control and ±100 the full control effect; potency means the concentration at half of the fitted maximal effect; tags describe the fitted curve by direction and shape.

SMILES	Potency	activity, negative = inhibition
Cc1ccc(NC(=O)CCS(=O)(=O)c2ccc(Br)cc2)nc1	inconclusive: 31.6 µM [inhibitor, single point]	–
Cc1ccc(-n2nc3c(c2NC(=O)C2CCCC2)CS(=O)(=O)C3)cc1	inconclusive: 5.01 µM [inhibitor, full curve]	–
Cc1cccc(-n2c(CNC(=O)c3ccc(S(=O)(=O)N4CCCC4)cc3)n[nH]c2=S)c1	active: 14.1 µM	–
COC(=O)c1ccccc1NC(=O)CSc1nnc(-c2cccnc2)o1	inconclusive: 7.08 µM [inhibitor, full curve]	–
COCCn1nnnc1C(c1cc2cc(OC)c(OC)cc2[nH]c1=O)N1CCN(c2ccc(O)cc2)CC1 (configuration not stated)	inconclusive: 31.6 µM [inhibitor, partial curve, poor fit]	–
O=[N+]([O-])c1cnc(Sc2ccncn2)c([N+](=O)[O-])c1	inconclusive: 39.8 µM [inhibitor, partial curve]	–
Cc1ccc(S(=O)(=O)N2CCOCC2)cc1NC(=O)COC(=O)c1ccc(Br)o1	–	inactive: -11.6%
CSc1ccc(C(=S)N2CCN(CCO)CC2)cc1	inconclusive: 28.2 µM [inhibitor, single point]	–
O=C(O)CSc1cc(NS(=O)(=O)c2ccc(Br)cc2)c2ccccc2c1O	inconclusive: 11.2 µM [inhibitor, partial curve]	–
COc1ccccc1NS(=O)(=O)c1ccc2[nH]c(=S)oc2c1	inconclusive: 3.16 µM [inhibitor, partial curve, poor fit]	–
COc1ccc(O)c(/C=N/NC(=S)Nc2cccnc2)c1	inconclusive: 31.6 µM [inhibitor, partial curve]	–
COc1ccc(N2C(=O)c3ccc(C(=O)OC(C)C)cc3C2=O)cc1	inconclusive: 35.5 µM [inhibitor, single point]	–
O=C(Nc1ccccc1)Nc1ccc(C(=O)N2CCCC2)cc1	inconclusive: 28.2 µM [inhibitor, partial curve, poor fit]	–
CCOCC(=O)Nc1cc(S(=O)(=O)N2CCOCC2)ccc1N1CCCCC1	inconclusive: 35.5 µM [inhibitor, partial curve, poor fit]	–
O=C(NCc1ccccc1)c1ccc(CSc2nc3cccnc3n2Cc2cccc(F)c2)cc1	–	inactive: -12.3%
CN1CCC(=NNC(=O)CSc2ccc(Cl)cc2)CC1	inconclusive: 56.2 µM [inhibitor, partial curve, poor fit]	–
O=C(NCc1ccc(F)cc1)c1ccc2c(O)c(S(=O)(=O)c3ccccc3)c(=O)[nH]c2c1	inconclusive: 39.8 µM [inhibitor, single point]	–
COc1cc(-c2n[nH]c(=S)n2-c2ccc(C)cc2)cc(OC)c1OC	active: 8.91 µM	–
O=C(c1ccccc1)c1nn(-c2cccc(Cl)c2)ccc1=O	–	inactive: 0.43%
CS(=O)(=O)N1CCc2cc(S(=O)(=O)NCCNS(=O)(=O)c3ccc4c(c3)CCN4S(C)(=O)=O)ccc21	–	inactive: -9.2%
COC(=O)C1=C(C)NC(C)=C(C(=O)OC)C1c1ccccc1[N+](=O)[O-]	inconclusive: 20 µM [inhibitor, partial curve]	–

SMILES	Potency	activity, negative = inhibition
Cc1ccc(C(=O)N/C(=C\c2ccc(-c3ccc(Br)cc3)o2)C(=O)NCCCN(C)C)cc1	–	inactive: 3.79%
CCOC(=O)c1c(C)[nH]c(C(=O)CSc2nccc(C)n2)c1C	–	inactive: 2.54%
COc1ccc(OC)c(N2C(=O)NC(=O)/C(=C\c3ccc([N+](=O)[O-])s3)C2=O)c1	inconclusive: 11.2 µM [inhibitor, partial curve, poor fit]	–
Cc1ccc(OCc2n[nH]c(=S)n2Cc2ccccc2)cc1	inconclusive: 3.98 µM [inhibitor, full curve, poor fit]	–
CCCC1CCc2c(sc(N)c2C(N)=O)C1 (configuration not stated)	inconclusive: 50.1 µM [inhibitor, single point]	–
COc1cc(C(C(=O)NCC2CCCO2)N(C(=O)Cn2nnc3ccccc32)c2ccc(C(C)=O)cc2)ccc1O (configuration not stated)	–	inactive: 2.54%
Cc1ccn2c(-c3n[nH]c(=S)n3C)c(C)nc2c1	inconclusive: 25.1 µM [inhibitor, single point]	–
CC1(C)CC(=O)C(=Cc2cn(-c3ccccc3)nc2-c2ccccc2)C(=O)C1	inconclusive: 11.2 µM [inhibitor, partial curve]	–
Cc1ccc(NC(=O)C(=O)NC2CCCCC2)cc1	–	inactive: 1.6%
O=C(NC1CC1)c1cccc(NC(=O)C2CCCCC2)c1	–	inactive: -2.59%
Oc1ccc(N2CCN(C(=S)NCCc3ccccc3)CC2)cc1	inconclusive: 12.6 µM [inhibitor, partial curve]	–
Cc1ccc(C)c(-n2c(-c3cccnc3)n[nH]c2=S)c1	inconclusive: 6.31 µM [inhibitor, partial curve]	–
COc1ccc(N2CCN(C(=O)c3ccccc3F)CC2)c([N+](=O)[O-])c1	inconclusive: 50.1 µM [inhibitor, partial curve, poor fit]	–
Cn1ncc2c(=S)nc(Cl)[nH]c21	inconclusive: 22.4 µM [inhibitor, partial curve, poor fit]	–
COc1cc(CNc2ccc(O)cc2)cc(Br)c1OCc1ccccc1	inconclusive: 3.98 µM [inhibitor, partial curve, poor fit]	–
CCOC(=O)c1c(Nc2ccc(C)c(C)c2)nnc(-c2ccccc2)c1-c1ccccc1	–	inactive: -7.03%
COCC(=O)N(C)C[C@@H]1Oc2cc(-c3ccc(F)cc3)ccc2S(=O)(=O)N([C@H](C)CO)C[C@H]1C	–	inactive: -5.6%
CC(=O)N1c2ccc(S(=O)(=O)NCCC(=O)Nc3ccc(OC(F)(F)F)cc3)cc2CC1C (configuration not stated)	inconclusive: 31.6 µM [inhibitor, single point]	–
Cc1cc(C2=NNC(=Nc3ccc(S(=O)(=O)N4CCOCC4)cc3)SC2)c(C)n1CC1CCCO1 (configuration not stated)	inconclusive: 15.8 µM [inhibitor, partial curve, poor fit]	–
COc1cc(/C=C2\C(=O)NC(=O)N(c3ccc(C)cc3)C2=O)cc(OC)c1O	inconclusive: 28.2 µM [inhibitor, single point]	–
COc1ccc(/C=N/n2c(-c3n[nH]c4c3CCC4)n[nH]c2=S)cc1OC	inconclusive: 3.55 µM [inhibitor, partial curve, poor fit]	–
